# Measurements reported in the RNAGym collection of RNA variant scans (doi:10.7554/elife.90254).
# The source gives no read counts; variants with many changes may rest on few reads.
# B1: LINE1-full (parent)
# chain: UACGUAGGUGGUUUUCCCCUGAUAGUGCUAAGGGGGCCUGGAAGUUUGGACUGGGCAGAGCUCAACACAGCGUGGCAAAGUGGCUGUGGCUAGACUGCCUCUCUGGAUUCCUCGUCACUCAGCAGGGCAUCUCUGAGAGAAAUGCC
# Variants of: B1
# Assay: self-cleavage, relative activity (ratio to wild type); higher = more cleavage; in vitro, sequencing; the parent is a self-cleaving ribozyme
row,Variant,self-cleavage
1,CACGUAGGUGGUUUUCCCCUAAUAGUGCCAAGGGGGCCUGGAAGUUUGGACUGGGCAGAGCUCAACACAGUGUGGCAAAGUGGCUGUGGCUAGACUGCCUCUCUGGAUUCCUCGUCACUCAGCAGGGCAUCCCUGAGAGAAAUGCC [U1C G21A U29C C71U U132C],0.99
2,CACGUAGGUGGUUUUCCCCUGAUAGUGCUAAGGGGGCCUGGAAGUUUGGACUGGGCAGAGCUCAACACAGCGUGGCGAAGUGGCUGUGGCUAGACUGCCUCUCUGGUUUCCUCGUCACUCAGCAGGGCAUCUCUGAGAGAGAUGCC [U1C A77G A107U A141G],1.09
3,CACGUAGGUGGUUUUCCCCUGAUAGUGCUAAGGGGGCCUGGAAGUUUGGACUGGGCAGAGCUUAACACAGCGUGGCAAAGUGGCUGUGGCUAGACUGCCACUCUGGAUUCCUCGUCACUCAGCAGGGCAUCUCUGAGAGAAAUGCC [U1C C63U U100A],0.1
4,CACGUAGGAGGUUUUCCCCUGAUAGUGCUAUGGGGGCCUGGAAGUUUGGACUGGGCAGGGCUCAACACAGCGUGGCAAAGUGGCUGUGGCUAGACUGCCUCUCUGGAUUCCUCGUCACUCAGCAGGGCAUCUCUGAGAGUAAUGCC [U1C U9A A31U A59G A140U],0.28
5,CACGUAGGUGGUUUUCCCCUGAUAGUACUAAGGGGGCCUGGAAGUUUGGACUGGGCAGAGCUCGACACGGCGUGGCAAAGUGGCUGAGGCUAGACUGCCUCUCCGGAUUCCUCGUCACUCAGCAGGGCAUCUCUGAGAGAAAUGCC [U1C G27A A64G A69G U87A U104C],0
6,CACGUAGGUGGUUUUCCCCUGAUAGUGCUAAGGGGGCCUGGAAGUUUGGACUGGGCAGAGCUCAACACAGCGUGGCAAAGUGGUUGUGGCUAGACUGCCUCUCUGGAUCCCUCGUCACUCAGCAGGGCAUCUCUGAGAGAAAUGCC [U1C C84U U109C],0.04
7,CACGUAGGUGGUUUUCCCCUGAUAGUGCUAAGGGGGCCUGGAAGUUUGGACUGGGCAGAGCUCAGCACAGCGUGGCAAAGUGGCUGUGGCUAGACUGCCUCUCUGGAUUCCUCGUCACUCAGCAGGGCAUCUCUGAGUGAAAUGCC [U1C A65G A138U],0.12
8,CACGUAAGUGGUCUUCCCCUGAUAGUGCUAAGGGGGCCUGGAAGUUAGGACUGGGCAGAGCUCAACACAGCGUGGCAAAGUGGCUGUGGCUAGACUGCCUCUCUGGAUUCCUCGUCACUCGGCAGGGCAUCUCUGAGAGAAAUGCC [U1C G7A U13C U47A A121G],1.27
9,CAUGUAGGUGGUUUUCCCCUGAUAGUGCUAAGGGGGCCUGGAAGUUUGGACUGGGCAGAGCUCAACACAGCGUGGCAAAGUGGCUGUGGCUAGACUGCCUCUCUGGAUUCCUUGUCACUCAGCAGGGCAUCUCUGGGAGGAGUGCC [U1C C3U C113U A136G A140G A142G],0.85
10,CACGUAGGUGGUUUUCCCCUGAUAGUGCUAAGGGGGCCUGGAAGUUUGGACUGGGCAGAGCUCAACACAGCGUGGCAAAGUGGCUGUUGCUAGACUGCCUCCCUGGAUUCCUCGUCACUCAGCAGGGCAUCUCUGAGAGAAAUGCC [U1C G88U U102C],0.36
11,CACGUAGGUGGUUUUCCCCUGAUAUUGCUAUGGGGGCCUGGAAGUUUGGACUGGGCGGAGCUCAACACAGCGUGGCAAAGUGGCUGUGGCUAGACUGCCUCUCUGGAUUCCUCGUCACUCAGCAGGGCAUCUCUGAGAGAAAUGCC [U1C G25U A31U A57G],0.66
12,CACGUAGGUGGUUUUCCCCUGAUAGUGCUAAGGGGGCCUGGAAGUUUGGACUGGGCAGAGCUCAACACAGCGUGGCAAAGUGGCUGUGGCUAGGCUGCCUCUCUGGAUUCCUCGUCACUCAGCAGGGCGUCUCUGAGAGAAAUGCC [U1C A94G A129G],0
13,CACGUAGGUGGUUUUCCCCUGAUAGUGCUAAGGGGGCCUGAAAGUUUGGACUGGGCAGAGCUCAACACAGCGUGGCAAAGUGGAUGUGGCUAGACUGCCUCUCUGGAUUCCUCGUCACUCAGCAGGGCAUCUCUGAGAGAGAUGCC [U1C G41A C84A A141G],0.07
14,CACGUAGGUGGUUUUCCCCUGAUAGUGCUAAGGGGGCCUGGAAGUUUGGACUGGGCAGAGCUCAACGCAGCGUGGCAAAGUGGCUGUGGCUAGACUGCCUCUCUGGAUUCCUCGUCACUCAGCAGGGCAUCUCUGAGAGAAGUGCC [U1C A67G A142G],0.19
15,CACGUAGGUGGUUUUCCCCUGAUAGUGCUAAGGGGGCCUGGAAGUUUGGACUGGGCAGAGCUCAACACAGCGUGGUAUAGUGGCUGUGGCUAGACUGCCUCUCUGGAUUCCUCGUCACUCAGCAGGGCAUCGCUGAGAGAAAUGCC [U1C C76U A78U U132G],1.88
16,CACGUAGGUGGUUUUCCCCUGAUAGUGCUAAGGGGGCCUGGAAGUUUGGACUGGGCAGAGCUCAACUCAGCGUGGCAAAGUGGCUGUGCCUAGACUGCCUCUCUGGAUUCCUCGUCACUCAGCAGGGCAUCUCUGAGAGAAAUGCC [U1C A67U G89C],0.03
17,CACGUAGGUGGUUUUCCCCUGAUAGUGCUAAAGGGGCCUGGAAGUUUGGACUGGGCAGGGCUCAACACAGCGUGGCAAAGUGGCUGUGGCUGGACUGCCUCUCUGGAUUCCUCGUCACUCAGCAGGGCAUCUCUGAGAGAAAUGCC [U1C G32A A59G A92G],0.47
18,CACGUAGGUGGUUUUUCCCUGAUAGUGCAAAGGGGGCCUGGAAGUUUGGACUGGGCAGAGCUCAACACAGCGUGGCAAAGUGGCUGUGGCUAGACUGCCUCUCUGGAUUCCUCGUCACUCAGCAGGGCACCUCUGAGAGAAAUGCC [U1C C16U U29A U130C],0.72
19,CACGUAGGUGGUUUUCCCCUGAUAGUGCUAAGGGGGCCUGGAAGUUUAGACUGGGCAGAGCUCAACACAGCGUGGCAAAGUGGCUGUGGCUAGACUGCCUCUCUGGAUUCCUCGUCACUCAGCAGGGCAUCUCUGAGAGAAAUACC [U1C G48A G144A],0.44
20,CACGUAGGUGGUUUUCCCCUGAUAGUGCUAAGGGGGCCUGGAAGUUUGGACUGGGCAGAGCUCAACACAGCGUGGCAAUGUGGCUGUGGCUAGACCGCCUCUCUGGAUUCCUCGUCACUCAGCAGGGCAUCUCUGAGAGAAAUGCC [U1C A79U U96C],0.16

row,Variant,self-cleavage
1,CACGUAGGUGGUUUUCCCCUGAUAGUGCUAAGCGGGCCUGGAAGUUUGGACUGGGUAGAGCUCAACACAGCGUGGCAAAGUGGCUGUGGCUAGACUGCCUCUCUGGAUUCCUCGUCACUCAGCAGGGCAUCUCUGAGAGAAAUACC [U1C G33C C56U G144A],0.4
2,CACGUAGGUGGUUUUCCCCUGAUAGUGCUAAGGGGGCCUGGAAGUUUGGACUGGGCAGAGCUCAACACGGCGUGGCAAAGUGGCUGUGGCUAGACUGCCUCUCUGGAUUCCUCGUCACUCAGCAGGGCACCUCUGAGAGAAAUGCC [U1C A69G U130C],0.21
3,CACGUAGGUGGUUUUCCCCUGAUAGUGCUAAGGGGGCCUGGAAGUUUGGACUGGGCAGAGCUCAGCACAGCGUGGCAAAGCGGCUGUGGCUAGACUGCCUCUCUGGAUUCCUCGUCACUCAGCAGGGCAUCUCUGAGAGAAAUGCC [U1C A65G U81C],0
4,CACGCAGGUGGUUUUCCCCUGAUAGUGCUAAGGGGGCCUGGAAGUUUGGACUGGGCAGAGCUCAGCACAGCGUGGCAAAGUGGCUGUGGCUAGACUGCCUCUCUGGAUUCCACGUCACUCAGCAGGGCAUCUCUGAGAGAAAUGCC [U1C U5C A65G U112A],0.14
5,CACGUAGGUGGUUUUCCCCUGAUAGUGCUAAGGGGGCCUGGAAGUUUGGACUGGGCAGAGCUCAACCCAGCGUGGCAAAGUGGCUGUGGCUAGACUGCCUCUCUGGAUUCCUCGUCACUCCGCAGGGCAUCUCUGAGAGAAAUGCC [U1C A67C A121C],0
6,CACGUAGGUGGUUUUCCCCUGAUAGUGCUAAGGGGGCCUGGAAGUUUGGACUGGGCAGAGCUCAACACAGCGUGGCAGAGUGGCUGUGGCUAGACUGCCUCUCUGGAUUCCUCGUCACUCAGCAGGGCACCUCUGAGAGAAAUGCC [U1C A78G U130C],0.86
7,CACGUAGGAGGUUUUCCCCUGAUAGUGCUAAGGGGGCCUGGAAGUUUGGACUGGGCAGAGCUCAACUCAGCGUGGCAAAGUGGCUGUGGCUAGACUGCCCUUCUGGAUUCCUCGUCACUCAGCGGGGCAUCUCUGAGAGGAAUGCC [U1C U9A A67U U100C C101U A124G A140G],0.07
8,CACGUAGGUGGUUUUCCCCUGAUAGUGCUAAGGGGGCCUGGAAGUUUGGACUGGGCAGAGCUCAACACAGCGUGGCAGAGUGGCUGUGGCUAGACUGCCUCUCUGGAUUCCUCGUCACUCAGCAGGGCAUCUCUGAGAGAGAUGCC [U1C A78G A141G],0.75
9,CACGUAGGAGGUUUUCCCCUGAUAGUGCUAAGGGGGCCUGGAAGUUUGGACUGGGCAGAGCUCAACACAGCCUGGCAAAGUGGCUGUGGCUAUACUGCCUCUCUGGAUUCCUCGUCACUCAGCAGGGCAUCUCUGAGAGAAAUGCC [U1C U9A G72C G93U],0.04
10,CACGUAGGUGGUUUUCCCCUGAUAGUGCUAAGGGGGCCUGGAAGUUUGGACUGGGCAGAGCUCAACACAGCGUGGCAAAGUGGCUGUGGCUAGACUGCCUCUCUGGAUUCCUUGUCACUCAGCAGGGCAUCUCUGAGGGAAAUGCC [U1C C113U A138G],1
11,CACGUAGGUGGUUUUCCCCUGAUAGUGCUAAGGGGGCCUGGAAGUUUGGACUGUGCAGAGCUCGACACAGCGUGGCAAAGUGGCUGUGGCUAGACUGCCUCUCUGGAUUCCUCGUCACUCAGCAGGGCAUCUCUGAGAGAAAUGCC [U1C G54U A64G],0.1
12,CACGUAGGUGGUUUUCCCCUGAUAGUGCUAAGGGGGCCUGAAAGUAUGGACUGGGCAGAGCUCAACACAGCGUGGCAAAGUGGCUGUGGCUUGACUGCCUCUCUGGAUUCCUCGUCACUCAGCAGGGCAUCUCUGAGAGAAAUGCC [U1C G41A U46A A92U],0.14
13,CACGUAGGUGGUUUUCCCCUGAUAGUGCUAAGUGGGCCUGGAAGUUUGGACUGGGCAAAGCUCAACGCAGCGUGGCAAUGUGGCUGUGGCUAGACUGCCUCUCUGGGUACCUCGUCAUUCAGCGGGGCAUCUCUGAGAGAAAUGCC [U1C G33U G58A A67G A79U A107G U109A C118U A124G],0.03
14,CACGAAGGUGGUUUUCCCCUGAUAGUGCUAAGGGGGCCUGGAAGUUUGGACUGGGCAGAGCUCAACACAGCGUGGCAAAGUGGCUGUGGCUAGACUGCCUCUCUGGAUUCCUCGCCACUCAGCAGGGCAUCUCUGAGAGAAAUGCC [U1C U5A U115C],0.9
15,CAUGUAGGUGGUUUUCCCCUGAUAGAGCUAAGGGGGCCUGGAAGUUUGGACUGGGCAGAGCUCAACACAGCGUGGCAAAGUGGCUGUGGCUAGACUGCCUCUCUGGAUUCCUCGUCACUCAGCAGGGCUUCUCUGAGAGAAGUGCC [U1C C3U U26A A129U A142G],1.06
16,CACGUAGGUGGUUUUCCCCUGAUAGUGCUAAGAGGGCCUGGAAGCUUGGACUGGGCAGAGCUCAACACAGCGUGGCAAAGUGGCUGUGGCUAGACUGCCUCUCUGGAUUCCUCGUCACUCAGCAGGGCAUCUCUGAGAGAAAUGCC [U1C G33A U45C],0.78
17,CACGUAGGCGGUUUUCCCCUGAUAGUGCUAAGGGGGCCUGGAGGUUUGGACUGGGCAGAGCUCGACACAGCGUGGCAAAGUGGCUGUGGCUAGACUGCCUCUCUGGAUUCCUCGUCACUCAGCAGGGCAUCUCCGAGAGAAAUGCC [U1C U9C A43G A64G U134C],0
18,CACGUAGGUGGUUUUCCCCUGAUAGUGCUAAGGGGGCCUGGAAGUUUGGACUGGGAAGAGCUCAACACAGCGUGGCAAAGGGGCUGUGGCUAGACUGCCUCUCUGGAUUCCUCGACACUCAGCAGGGCAUCUCUGAGAGAAAUGCC [U1C C56A U81G U115A],0.09
19,CACGUAGGUGGUUUUCCCCUGAUAGUGCUAAGGGGGCCUGGAAGUUUGGACUGGGCAGAGCUCAACACAGCGUGGCAAAAUGGCUGUGGCUAGACUGCCUCUCUGGAUUCCCCGUCACUCAGCAGGGCAUCUCUGAGAGAAAAGCC [U1C G80A U112C U143A],0.89
